Experimental data: the BET-seq Pho4 binding data (Le et al. 2018)
The list shows a part of the results. Values were computed here from the reads of four pooled replicates and scatter widely.

What follows are sequences tested against T1, Pho4 (S. cerevisiae) (UniProt P07270) (assay: relative binding free energy (BET-seq); higher = weaker binding). Details: reference: library average.
T1 sequence: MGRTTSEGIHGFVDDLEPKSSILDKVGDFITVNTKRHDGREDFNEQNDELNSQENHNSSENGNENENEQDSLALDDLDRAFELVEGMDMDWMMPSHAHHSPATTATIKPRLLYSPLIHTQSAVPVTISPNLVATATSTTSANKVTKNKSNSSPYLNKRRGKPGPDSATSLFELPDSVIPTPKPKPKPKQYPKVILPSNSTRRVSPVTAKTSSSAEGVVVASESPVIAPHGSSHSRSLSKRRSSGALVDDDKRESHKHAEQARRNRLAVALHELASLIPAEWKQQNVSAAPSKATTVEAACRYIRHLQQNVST

Sequence	relative binding free energy [kcal/mol]
TTTCTCACGTGTAGGG	0.21
AAGATCACGTGGTGCG	-0.06
CGGGGCACGTGACGGA	0.05
TGATTCACGTGGGGTT	0.28
GGGTTCACGTGCGGTG	0.42
TCTGACACGTGTTTGT	0.04
TTAGGCACGTGATTAG	-0.05
TTGTACACGTGGGTAC	0.02
TTTGCCACGTGGATGG	-0.03
TGTCGCACGTGGGACG	-0.14
CTAGTCACGTGTATTT	0.01
AGTGACACGTGGGTCT	-0.23
AGTGGCACGTGTGAAA	-0.06
GTGACCACGTGGTGGT	-0.11
TTTAGCACGTGGAGGG	-0.09
ACAGACACGTGGTGGG	-0.11
GGATGCACGTGGGTGG	-0.11
TATGGCACGTGAGATA	0
GAGGCCACGTGTGTGG	0.12
TTAGGCACGTGTGTCC	0.05
CGTTGCACGTGTTGGC	-0.04
GTGATCACGTGTGTAA	0.23
TCAGCCACGTGGTGTA	0.03
GCGGGCACGTGTTGAG	0.04
GATAGCACGTGATTAG	0.2
GTGCCCACGTGTGGGT	0.01

Sequence	relative binding free energy [kcal/mol]
TTTTGCACGTGAGGTA	0.17
TAGTGCACGTGATCGT	-0.03
TGGTGCACGTGATGCG	0.06
TGTTTCACGTGTCTAC	0.4
ATAGTCACGTGAGCGT	0.25
ATTTTCACGTGGGCTA	0.2
GAAATCACGTGGGATG	0.11
AGTGTCACGTGGCAGA	-0.01
GTATACACGTGGTGTG	0
TGCGACACGTGTGAGT	0.01
ATCTTCACGTGGGTTA	0.01
TCATGCACGTGATGTA	0.07
ATGTACACGTGTTCGT	0.01
CAGTGCACGTGCGTGG	0
GTTAGCACGTGATGCG	0.1
TGGCACACGTGGTTGA	-0.01
AGACTCACGTGGTTTG	0.11
GGTCGCACGTGGATTT	0.13
TTCTTCACGTGTTTAG	0.3
TATCGCACGTGGCGTT	-0.12
AGAGTCACGTGGGCTA	0.07
ATAGTCACGTGACGTG	0.12
AGGGTCACGTGGAAGT	0.2
GAGAACACGTGGAGTG	-0.02
TGTGACACGTGCGGAT	-0.1
GTATTCACGTGAATAT	0.24

Sequence	relative binding free energy [kcal/mol]
AAGGGCACGTGCTTTA	-0.15
GTGAGCACGTGGCGAG	-0.11
GGTTTCACGTGGGTTC	0.35
TTAAACACGTGGGCTT	0.02
GCGTTCACGTGTTCGG	0.25
ATGGTCACGTGGGTGC	0
GAGATCACGTGTATTT	0.35
CGGCTCACGTGGGGTT	-0.1
GTTTGCACGTGGCTTA	0.1
GGTGCCACGTGTGCGA	0.08
TTCAGCACGTGTATGG	-0.02
TGAAGCACGTGCGAGT	-0.09
CATGTCACGTGGGGAG	-0.09
AGTTACACGTGGTAGG	0.11
TAATGCACGTGGGTGA	-0.11
GTATGCACGTGGAAAT	0.17
TGGAACACGTGTTAGT	0.11
ATGTGCACGTGTCGCT	-0.11
GAGGACACGTGTTTGG	-0.07
GGTTACACGTGCAGTG	0.03
GACAGCACGTGTGGAT	0.24
GGGTACACGTGGATTA	0.14
ATGTGCACGTGCACGG	-0.09
CTTTTCACGTGAGATG	0.41
ATTAGCACGTGATAAG	0.09
GAGGTCACGTGGGTCT	0.06

Sequence	relative binding free energy [kcal/mol]
AGGGGCACGTGAAGGC	0.09
CGAGTCACGTGTAGTG	0.07
TCGCGCACGTGTGGGG	-0.15
GGTTTCACGTGTGCAT	0.32
GTATTCACGTGTTTCT	0.2
TTGTACACGTGTGGAC	0.06
GTTTTCACGTGTAGTC	0.33
GATTGCACGTGGTGTG	0.01
CGCGACACGTGGGGGT	-0.12
AGTGACACGTGCAGGG	-0.04
ATAGGCACGTGGGGTC	-0.32
TGGGACACGTGGGCTG	-0.16
TGTGGCACGTGGGCCT	-0.3
GGAATCACGTGGGTTT	0.04
GTGGGCACGTGTATGC	-0.06
TATGCCACGTGGGATG	-0.24
TAGTGCACGTGGCGAT	-0.05
TATATCACGTGGGTAC	0.12
CGTGTCACGTGGGGAA	-0.14
ATTGGCACGTGATGCG	-0.01
TATGACACGTGTAGTT	0.12
TGAGGCACGTGTCAGA	-0.01
GTGTGCACGTGTCGAT	0.02
GTCCGCACGTGGTGTG	-0.16
GTCATCACGTGGTTTT	0.15
AGTAACACGTGAGGAT	0.1

Sequence	relative binding free energy [kcal/mol]
GTAAGCACGTGCTGTT	-0.02
AGTCGCACGTGGAGTT	-0.06
ATATGCACGTGCAGGG	-0.07
AGGGGCACGTGCTATG	-0.28
TTGAGCACGTGGATTA	-0.02
TTGGACACGTGGGGGT	-0.04
ATAGACACGTGGGTTA	-0.1
ATGTGCACGTGATATG	-0.05
GGTGCCACGTGGAGTG	-0.01
ATGTCCACGTGTGGGA	0.05
TTTATCACGTGAAGGT	0.27
CGAGGCACGTGTTATT	-0.13
AACGTCACGTGAGGTG	0.3
AAGGACACGTGGTTCG	0.04
AATTTCACGTGTTGAT	0.13
GAGTTCACGTGCGGGC	0.3
TAAATCACGTGTGTAA	0.17
CGGGGCACGTGTCGTA	-0.1
GTACACACGTGGTGAG	0.13
TACTGCACGTGGAGGG	-0.01
AGAGTCACGTGCGGAG	0.15
TATTACACGTGAGTGA	0.38
TAGGACACGTGAGGCG	0.27
AATTTCACGTGTCGGT	0.28
ATAGGCACGTGGTAAA	-0.13
TTGGACACGTGGGTTT	0

Sequence	relative binding free energy [kcal/mol]
GTGTGCACGTGAGTCA	0.25
GCGGACACGTGGTGTG	0
AGGTACACGTGCAGTG	0.08
GTAGGCACGTGAGATG	0.1
AGCGGCACGTGTTGTG	-0.19
GTGTTCACGTGGTTTT	0.24
GTGGTCACGTGCTGAT	0.15
CTAAGCACGTGGGTGT	-0.37
CTGATCACGTGTTTTT	0.14
TTGGGCACGTGACTCG	0.06
TTAATCACGTGGGACG	0.07
AGTTACACGTGGAGCT	0.12
TCGGGCACGTGGATAG	-0.05
CAAGTCACGTGTGTAG	0.04
GGTAGCACGTGTACGT	0.12
CAAGACACGTGAGGGG	0.35
GGAATCACGTGTTCGG	0.15
TTTAACACGTGTAGTC	0.19
GGGGACACGTGAGGTC	0.23
GGCATCACGTGTAAGG	0.14
TGAAGCACGTGAGGGC	0.19
AGTAGCACGTGATGGC	-0.13
TTTTACACGTGTGTTC	0.13
TGTGACACGTGTTAGC	0
CCGTTCACGTGTGGGG	0.2
GCGGACACGTGTTTTG	0.16

Sequence	relative binding free energy [kcal/mol]
TAGCGCACGTGGGCTG	-0.35
ATGATCACGTGGAGCG	0.09
TTGGTCACGTGCCGTG	0.04
GAGAGCACGTGGGGCG	-0.27
GACGGCACGTGAGGAG	0.17
TTGGGCACGTGGCGCG	-0.21
CTGGGCACGTGCTGCG	-0.09
TTGATCACGTGAAGGC	0.39
TTGATCACGTGACTGG	0.3
GGGGGCACGTGCGTAA	-0.18
GTGGGCACGTGAGAAA	0.1
ATTCGCACGTGGGTTC	-0.08
TATACCACGTGGTTAG	-0.11
AGATGCACGTGGGTTA	-0.18
CTTAGCACGTGGGGAG	-0.12
AGGGACACGTGTTGGT	-0.12
ACGGGCACGTGTGGCA	-0.03
AGATACACGTGGGGTA	-0.16
GTTGTCACGTGGGAGC	-0.08
GCTTCCACGTGGGGTT	-0.03
GTCGTCACGTGTGCGA	0.21
TGTTACACGTGAAGTT	0.43
TTGCGCACGTGGGGCC	-0.08
GGGAGCACGTGTGGGT	-0.09
GGTCACACGTGGGTCG	-0.05
TTTATCACGTGTGGTC	0.23

Sequence	relative binding free energy [kcal/mol]
GTTTTCACGTGTTAGT	0.3
TGTGACACGTGTTTTA	-0.03
CTTCTCACGTGTTGTT	0.08
AGGCTCACGTGGTTGA	0.23
GGCCACACGTGTGTGG	0.11
GAGGGCACGTGATTGT	0.01
GTACACACGTGTTTTT	0.07
TGTCGCACGTGTGAAA	0.13
GGTTTCACGTGTACGA	0.29
GGTTACACGTGGTAAC	0.19
ATGGGCACGTGAGAGC	0.15
GGGTGCACGTGTTTAA	0.06
AGCTTCACGTGATGGG	0.44
TGGAACACGTGCTGAG	0.16
TAATTCACGTGTCAGT	0.3
GATGCCACGTGGGGCG	-0.1
GATGACACGTGGTCTG	-0.04
TATTACACGTGTCAGT	0.07
ATGTTCACGTGTTTGG	0.27
GCGTACACGTGGTGTG	0.04
TATGACACGTGTTCAT	0.05
TCTAGCACGTGGGTTT	-0.19
TAGGACACGTGGCGTA	0.01
TTGTGCACGTGTACGC	0.01
ATGGTCACGTGACGGC	0.31
GACTTCACGTGGGGAG	0.19

Sequence	relative binding free energy [kcal/mol]
GAGATCACGTGGGTAT	0.12
GGGATCACGTGGGTTC	0.2
GTTTGCACGTGGACAG	0.08
ATATTCACGTGACAGT	0.4
TTATCCACGTGATTGT	0.15
GGTTCCACGTGTTGAA	0.15
TTGGTCACGTGTGAAT	0.22
CGGGGCACGTGTGAAG	0.01
TGTTTCACGTGCTTCG	0.25
AGCGACACGTGATTGG	0.32
TTTGGCACGTGGATAT	-0.12
GGAGACACGTGCAGTG	0.03
ATGATCACGTGTATGA	0.08
CGAGTCACGTGTGGCT	0.12
GTTTGCACGTGGGAGC	-0.02
GGTTGCACGTGGATAT	0.01
TTGCACACGTGGGGAG	-0.15
TGGTGCACGTGTTAGC	-0.07
TGTAGCACGTGCGTGA	-0.11
GTATGCACGTGGTATG	-0.14
GTGTGCACGTGAAATT	0.26
GGGCACACGTGTGTAA	0.23
